Data on 167 variants can be found in the RNAGym collection of RNA variant scans (doi:10.7554/elife.90254).

Read counts are not given, so values of variants with three or more changes are uncertain.

The labels stand for the following.
B1: LINE1-mini (parent)
chain: GGCAGAGCUCAACACAGCGUGGCAAAGUGGCUGUGGCUAGACUGCC

Variants of B1 are the subject of this data set. In words: self-cleavage, relative activity (ratio to wild type); higher = more cleavage; in vitro, sequencing; the parent is a self-cleaving ribozyme.
As to A6U A12U A16U C18G C23A, the self-cleavage was determined as 0.07.

Take A6U A16G G30U G40U: the self-cleavage stood at 0.01.

A6U G19A C23U G40U: the self-cleavage was determined as 0.15. The result for A6U C13U C18G G36A reads 0.08; that for A6U C10A G27C U32C, 0.03. The result for A6U C18A A26G reads 0.51; that for A6U A26G G33U U34G C37A C45G, 0.11.

As for A6U C13U U28G, the self-cleavage was determined as 0. The result for A6U A11U A25U G33A reads 0.05; that for A6U C13U C15U A39C, 0.09. Under A6G U38A G40C C46G stands 0.02; under A6U C10U G27U C46A, 0.3. Under A6U C13U C18U A26U G30A C46G stands 0.02. As to A6U C8G A11C C18U A26U G27A C31A U34C, the self-cleavage came to 0. Under A6G U28C U32C stands 0.08; under A6U A25C C31U G40U, 0.67. Under A6U C15A C23U G27U A39C stands 0.08; under A6U G19C A26G G40U, 0.04; under A6U C10A C46U, 0.01. As to A6U C15U G19C U34C, the self-cleavage stood at 0.15. As to A6U A16U G30A G35C U43C, the self-cleavage amounted to 0.2. The result for A6U G17A G21A G27A U28G C31G reads 0.13; that for A6G U9C A11G A41C G44U, 0.01; that for A6U C15A C31U, 0.12. As to A6U G7A A11U C31G G33A A41U U43G C45A, the self-cleavage stood at 0. Under A6U C37G A41U stands 0; under A6U C10G C37U, 0; under A6U A12G C37U, 0.08.

Regarding A6U A11U C37U A41G, the self-cleavage was 0.02. The result for A6U C8U C10U A39C reads 0.05. The result for A6U C18U G30C reads 0.39; that for A6U C15G C18U C23A G30U G33A, 0.04.

Take A6U C10A C18U: the self-cleavage was 0.06. Turning to A6U C15A C18U U34G, the self-cleavage stood at 0.01. For A6U A16U C31U G36C C37G, the self-cleavage stood at 0.03. Under A6U G19C A25G G36C stands 0.02. The result for A6U A11U G22A A24G A25C reads 0.21; that for A6U G7C C8U U38C, 0.54; that for A6U A24C C37A, 0.04. The result for A6U C10A G35C reads 0.1; that for A6U C10A A25C, 0.06; that for A6U C10A C15A, 0.01. In the case of A6U A11U G21C C45U, the self-cleavage worked out at 0.11. With A6U G7A G21A G22A C23U C31U G33A, the self-cleavage came to 0.11. Under A6U C13G U20C A25U U32G A39C stands 0.12; under A6G U20A U32G, 0.01; under A6U C8U A12G C13A C31G, 0.49. The result for A6U A14C C15U C37G A41C C45G C46U reads 0.04; that for A6U G17A C18U U32A, 0.09; that for A6U C10A C13A G35U, 0.06. Turning to A6U G17U G19C A24G G36C C37A C42G C45A, the self-cleavage amounted to 0.03. The result for A6U A14C C15G C18G G22A reads 0.02; that for A6U C8G A14C C31U, 0.05; that for A6U C18A A41G, 2.31. Under A6U G7U A14U C37G A39U stands 0; under A6G U9C C18A C37U, 0.01; under A6U A12C G35U U38A, 0.02.

On to A6U A12C U43C C45U, for which the self-cleavage was 0.02. The result for A6U C37A G40C C45A reads 0.37; that for A6U C8G G40C C45U, 0.08; that for A6U G19A U32C, 0.07. For the variant A6U C18A U32A, the self-cleavage stood at 0.06. Turning to A6U G7C C10G U34A, the self-cleavage was 0.03. With A6U C13G U28G G35C, the self-cleavage was 0.15. A6U G7C G35A A41C C46U: the self-cleavage was 0.02.

As to A6U C10A A24C G27C, the self-cleavage came out at 0.02. The result for A6U G7A U32A reads 0.02. For A6U C15A G21U C23G, the self-cleavage came to 0.03. The result for A6U C10A G22U C46G reads 0.03; that for A6U C18U G33A, 0.08; that for A6U C8G A25U, 0.19. On to A6U C23A G29C U38A, for which the self-cleavage is 0.01.

For the variant A6U C13U G44U, the self-cleavage stood at 0.16. Under A6U G7A G22U stands 0.02; under A6U C8A G19A C37U, 0.37. The result for A6U A25G A26C G27U reads 0.12. The result for A6U A11G C31U reads 0.02. Turning to A6U A12C U43C, the self-cleavage amounted to 0.07.

Turning to A6U C13U G40C, the self-cleavage amounted to 0.1. For the variant A6G U32C G35U C45G, the self-cleavage worked out at 0.01. Under A6U A12G A24G stands 0.01; under A6U A14G C15A A24U C42U, 0.08; under A6U C31A G36C G44U, 0.

For A6U C8U G36A A41G G44U, the self-cleavage amounted to 1.64. As for A6G U9C U38C, the self-cleavage is 0.02. Under A6U C10A G21U U34G stands 0.06; under A6G U20A C23U G29U U34G, 0; under A6U C10U G21U, 0.26. Under A6U A41C C45U stands 0.03. The result for A6U C8A C23U reads 0.28; that for A6U C10G C46U, 0; that for A6G U9A A41U U43G C46A, 0.19. For the variant A6U A25U G29C, the self-cleavage stood at 0.07. In the case of A6U G7C U34A U38G, the self-cleavage was 0.01. The result for A6G U32C G40U reads 0.02.

Consider A6U C15A C46A, for which the self-cleavage worked out at 0.15. A6U C10G G27U C31U A41C: the self-cleavage was determined as 0.02. Under A6G U9C G29U stands 0.04; under A6U C23U C37U G40U, 0.34; under A6U G17U G36C, 0.02.

Turning to A6G G35U C42A, the self-cleavage came to 0.02.

On to A6U C8G C45U, for which the self-cleavage is 0.14. The result for A6G U9C C42A reads 0.01; that for A6U C10A A12G G19A G22C, 0.01. The result for A6U A16G C31G reads 0.02; that for A6U G17U U20G G36A, 0.03. Take A6U C18G A25C A26G: the self-cleavage was determined as 0.09. Under A6G U9G U28A stands 0.28; under A6U C8A U9C C18G C46U, 0.25; under A6G U32G G40U, 0.02. The result for A6U C15G A26G reads 0.01; that for A6U A25G A39U, 0.5; that for A6U C8G A16C G22C G29U C45A, 0.01. Under A6U C15U U32A C42A G44A stands 0.05.

In the case of A6U A14C A25U G35A, the self-cleavage was 0.25. Under A6U A24G G40A C42G stands 0.09; under A6U C15A G29C U32G, 0.27; under A6U A16U G17A C31A C37G, 0. Consider A6U C13G C15A A41U C45G, for which the self-cleavage was found to be 0.05. The result for A6U C8G C15A A16G reads 0.05. The result for A6U G7C C10A C42A reads 0; that for A6U G7U A16G G35A A41U, 0.13. The result for A6U C37A U38A reads 0.02. In the case of A6U G7A C37A C42A, the self-cleavage stood at 0.06. The result for A6U C8U G19U G22A G29C reads 0.07. In the case of A6U G7A G19A G29C, the self-cleavage was found to be 0.52. The result for A6G G35U A41U C46U reads 0.02. As to A6U C13U G19C C23G G35A G36C, the self-cleavage came to 0.87. Take A6U G7U G19C: the self-cleavage stood at 0.08. In the case of A6U G7A G19U A24U, the self-cleavage was 0.1. On to A6U A26C C31A C46A, for which the self-cleavage was found to be 0.32. Consider A6U G19A A25G C37A, for which the self-cleavage turned out to be 0.12. Regarding A6U C8U C13A G17U, the self-cleavage came out at 0.67. With A6U A14C G40C, the self-cleavage was found to be 0.01. The result for A6U A11C C13G U20A C37G C45A reads 0; that for A6U C8U A12U G17C G22A, 0.66; that for A6U C10U G17A A39C, 0.06. With A6U C10U G27C, the self-cleavage was determined as 0.04. A6U G7A C18G G27U: the self-cleavage came out at 0.2. As to A6U C10U A16U G17A G19A U38C, the self-cleavage amounted to 0.02. In the case of A6U C10A C15A G17C G21U C42U, the self-cleavage is 0.01. Under A6U C23U U32C A39G stands 0.06.

Consider A6U C10U C13G, for which the self-cleavage turned out to be 0.02. Under A6U C15G G29C U38A stands 0.18; under A6G U9C C18A C23U A41U, 0.01; under A6U C8A C18A C23A C45G, 0.45.

Regarding A6G U20A G44A, the self-cleavage is 0.03. As for A6U C13U A24U G35U, the self-cleavage was 0.15. In the case of A6U C13G C37U C45G, the self-cleavage worked out at 0.05. The result for A6U C18G G40C reads 0.03.

A6G U20G G36U C42A: the self-cleavage was found to be 0. Regarding A6U G7A A25U G36A A41G U43C, the self-cleavage stood at 1.04. The result for A6U C8U C10G G33C G44U reads 0.03; that for A6U C8A C10G A14G C31U G40U, 0.01; that for A6G U9A G44U, 0.51. Consider A6G U9A G44A, for which the self-cleavage turned out to be 0.03.

For the variant A6U C8G C13U C15G, the self-cleavage amounted to 0.11. The result for A6U C13A U32C reads 0.19; that for A6U A16C G21C, 0.26; that for A6U A12U U20C, 0.12.

Turning to A6U C15U G40U, the self-cleavage was found to be 0.21.

For the variant A6U C15U G40C, the self-cleavage was determined as 0.25. As to A6U C23U U28A U34A C42A C45A, the self-cleavage came out at 0.06. The result for A6U C10A G22U reads 0.21. On to A6U C13A A24G A41C, for which the self-cleavage stood at 0.01. Under A6U A14U C18A U38A C46G stands 0.04. In the case of A6U C13U C31A A41U, the self-cleavage amounted to 0.14.
